# Source: PubChem BioAssay AID485344 (National Center for Advancing Translational Sciences (NCATS), 2010)
# In all, about 340,000 compounds went through this assay and about 6,900 (2%) were called active. No stated cut-off is given here; in the data, active means inhibition above about 30%; inactive means below that, where a call was filed. Only a part is listed here, and it is no random draw. Entries without a call were filed so in the source.
# Biological target: D(2) dopamine receptor (Homo sapiens) (UniProt P14416)
# UniProt P14416, sequence (P14416 whole entry, looked up): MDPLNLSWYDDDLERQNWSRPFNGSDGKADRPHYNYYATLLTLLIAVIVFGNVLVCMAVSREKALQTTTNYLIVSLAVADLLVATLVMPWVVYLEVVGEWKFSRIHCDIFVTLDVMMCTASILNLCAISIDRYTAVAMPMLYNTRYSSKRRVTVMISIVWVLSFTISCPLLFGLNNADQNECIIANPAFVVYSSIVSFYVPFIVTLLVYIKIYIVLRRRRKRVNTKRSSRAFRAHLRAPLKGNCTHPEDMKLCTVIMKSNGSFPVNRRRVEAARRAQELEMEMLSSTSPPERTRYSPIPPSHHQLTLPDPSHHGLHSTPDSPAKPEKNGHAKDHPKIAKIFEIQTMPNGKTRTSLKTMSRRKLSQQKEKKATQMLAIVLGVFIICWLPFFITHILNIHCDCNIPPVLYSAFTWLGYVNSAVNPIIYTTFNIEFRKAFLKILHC
# Assay: HTS Assay for Allosteric Antagonists of the Human D2 Dopamine Receptor: Primary Screen for Antagonists; further: 0% is about no effect
# Settings: HEK293 TREx D2 cells, calcium flux, dopamine EC80; at 10 µM; stronger effect = higher value
# In short: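 Dopamine at EC80 is the agonist stimulus; test compounds precede it by 180 s. Calcium flux read kinetically in a force-coupled, inducible HEK293 T-REx D2 cell line.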
row,SMILES,inhibition
1,CCC(C(=O)NCc1ccccc1Cl)n1nc(C)c2sc3ccccc3c2c1=O (stereo not drawn),18%
2,CCOc1cc(C2c3c(-c4ccccc4O)n[nH]c3C(=O)N2Cc2cccnc2)ccc1O (stereo not drawn),7.97%
3,Fc1ccc(Cn2c(-c3cccc(Br)c3)nc3ccccc32)cc1,-26.8%
4,Cc1nn2c(C)c(C(=O)NCC(C)c3ccccc3)cnc2c1-c1ccccc1 (stereo not drawn),2.28%
5,O=C(Nc1c2c(nn1-c1ccc(Cl)cc1)CS(=O)(=O)C2)c1ccccc1F,-1.52%
6,COc1ccc(C2NC(=O)N(C)C3=C2C(=O)N(c2ccc(F)cc2)C3)cc1 (stereo not drawn),-4.72%
7,CCOC(=O)C1(CCc2ccccc2)CCN(C(=O)CN2CCOC2=O)CC1,active: 37%
8,COc1cccc(-c2noc(COc3ccccc3Cl)n2)c1,16.3%
9,Cc1ccc(Cl)cc1NC(=O)CSc1nc2ccccc2nc1Cc1ccccc1,16.8%
10,Cc1cccc(N2CCN(S(=O)(=O)c3ccc4c(c3)CC(=O)N4C)CC2)c1C,7.22%
11,COc1ccc(-c2onc(C)c2C)cc1S(=O)(=O)NCC1CCN(Cc2cc(C)ccc2C)CC1,6.85%
12,COc1ccc(Cn2ccnc2SCC(=O)NCc2ccco2)cc1,-18.7%
13,CCN(CC)CCNC(=O)Cn1nc(C)c2c(C)n(-c3ccccc3)nc2c1=O,-1.79%
14,COC(=O)c1ccccc1NC(=O)c1ccc2nc(CCc3ccccc3)oc2c1,-22.5%
15,CCCCn1c(=NC(=O)c2cc3ccccc3o2)c(C(=O)OCC)cc2c(=O)n3ccccc3nc21,-6.71%
16,COc1ccc2c(c1)C=C(CN1CCC(CO)(CCc3ccccc3)CC1)CO2,active: 31.5%
17,CCOc1ccc(-n2c(SCC(=O)NC3CCCCC3)nc3c([nH]c4ccccc43)c2=O)cc1,13.4%
18,Cc1ccc(-n2c(=O)c3c(cnn3C)n(CC(=O)Nc3ccccc3C)c2=O)cc1,-8.71%
19,Cc1cccc(Cn2cc(S(=O)(=O)c3cccc(C)c3)c(=O)c3cc(F)c(N4CCOCC4)cc32)c1,-12%
20,COc1ccc2nc(C)cc(Nc3ccc(Cl)c(Cl)c3)c2c1,6.86%
21,Cc1ccc(CNC(=O)CCCn2c(=O)[nH]c3ccc(Br)cc3c2=O)cc1,3.2%

row,SMILES,inhibition
1,COc1ccc(Nc2ncnc3c2cnn3-c2ccc(C)cc2)cc1Cl,-0.472%
2,CCC(=O)N1CCc2cc(Br)cc(S(=O)(=O)CCC(=O)NCc3cccc(OC)c3)c21,-2.02%
3,Cc1ccc2nc(-c3cccc(NC(=O)c4cccc5ccccc45)c3)oc2c1,7.81%
4,Cc1ccc(Cn2c(C(=O)O)c(CNC3CCCC3)c3ccc(C)cc32)cc1,-2.41%
5,Cc1ccc(OCc2ccc(-c3nc(C#N)c(NCc4ccccc4Cl)o3)o2)cc1,5.53%
6,Cc1cc(C)cc(-n2c(SCC(N)=O)nc3c([nH]c4ccccc43)c2=O)c1,-19.5%
7,O=C(Nc1ccccc1C(F)(F)F)N1CCC(CN2CCc3ccccc3C2)CC1,-19.4%
8,O=C(NC1CC(=O)N(c2cccc(F)c2)C1)c1cc2ccccc2o1 (stereo not drawn),1.91%
9,O=C(NC(=O)c1ccccc1)Nc1ccccc1O,active: 40%
10,COc1ccc(C)cc1NC(=O)C(Cc1ccccc1)NS(=O)(=O)c1cccs1 (stereo not drawn),17.1%
11,COc1ccccc1Nc1nn2c(=O)c3ccc(C(=O)NCCC4=CCCCC4)cc3nc2s1,3.3%
12,COc1cccc(CNC(=O)c2cnc(N3CCCCC3)c3ccccc23)c1,-28.5%
13,CN1c2ccc(Cl)cc2-c2nc(SCC(=O)NCc3ccccc3)ncc2S1(=O)=O,-13.8%
14,O=C(NCc1ccccc1F)C1CCN(c2nn3cc(-c4ccc(F)cc4)nc3s2)CC1,0.928%
15,Cc1ccccc1CSc1nc2ccsc2c(=O)n1CCC(C)C,5.58%
16,COc1ccccc1NC(=O)c1oc2ccccc2c1NC(=O)C1CCCCC1,-11.1%
17,CC1C(=O)N2CCCc3cc(S(=O)(=O)N4CCC(C(N)=O)CC4)cc1c32 (stereo not drawn),-14.5%
18,Cc1ccc2cc(CN(C(=O)c3cccc(Cl)c3)c3ccccc3)c(=O)[nH]c2c1,-13.2%
19,O=C(Nc1ccc(Cl)c(C(F)(F)F)c1)C1CCN(S(=O)(=O)c2cccc3nonc23)CC1,17%
20,Cc1cccn2c(=O)c(C(=O)NCCc3ccc(S(N)(=O)=O)cc3)c(O)nc12,15.6%
21,CCCCn1c(NCc2ccc(N(C)C)cc2)nc2ccccc21,-17.4%

row,SMILES,inhibition
1,COc1ccc(CNC(=O)COCc2cc(-c3cccs3)on2)cc1,-6.74%
2,O=C(O)Cn1ccc2cc(S(=O)(=O)N3CCCCCC3)ccc21,-6.64%
3,COc1ccc(CNC(=O)Cn2c(=O)cc(-c3ccccc3)c3c(C)nn(C)c32)cc1,-3.3%
4,CCOc1ccccc1CNC(=O)c1cccn1-c1nnc(N2CCCC2)s1,-5.14%
5,COc1ccc(S(=O)(=O)N(CC(=O)Nc2cccnc2)c2ccc(Cl)cc2)cc1,-9.19%
6,Clc1cccc(-n2ncc3c(NCCCn4ccnc4)ncnc32)c1,-1.59%
7,Cc1cccc(N2CCN(C(=O)Cn3nc(Cc4cccnc4)c4ccccc4c3=O)CC2)c1C,-9.28%
8,COc1ccc(NC(=O)Cn2c(=O)ccc3cc(S(=O)(=O)N4CCCC4)ccc32)cc1Cl,-3.79%
9,CC(C)(C)c1ccc(-c2nc(SCC(=O)Nc3ccccc3F)n3[nH]c(=O)cc3n2)cc1,-21.3%
10,CCc1ccc2oc(C(=O)Nc3ccccc3C(=O)OC)cc(=O)c2c1,2.8%
11,Cc1ccccc1NC(=O)c1c(C)oc2ccc(O)c(CN3CCN(C)CC3)c12,4.91%
12,COc1ccc(-c2onc(C)c2C)cc1S(=O)(=O)NCC1CCN(Cc2cccc(F)c2)CC1,18.3%
13,CC1=C(c2ccc(Cl)cc2)S(=O)(=O)N=C1N1CCC(C(=O)NCc2ccccc2F)CC1,1.08%
14,COc1ccc(CCNc2nc3c(-c4cccc(C)c4)nnn3c3ccccc23)cc1OC,-19.9%
15,COC1=C/C(=C/c2c(O)c(C#N)c3ccccn23)C=CC1=O,active: 33.1%
16,Cc1ccc(-n2c(=O)c3c(c4cc(C)ccc4n3C)n(CC(=O)NCc3ccccc3)c2=O)cc1,3.59%
17,CCN1CCc2nc3sc(C(=O)c4ccc(F)cc4)c(N)c3cc2C1,19%
18,COc1ccc(NC(=O)COC(=O)CCCOc2ccc(Cl)cc2Cl)cc1,active: 39.7%
19,COc1ccccc1NC(=O)CSc1nc(-c2ccccc2F)nc2cc(=O)[nH]n12,-2.65%
20,COc1ccc(NC(=O)c2c(NCc3cccc(OC)c3)sc3c2CCCC3)cc1,14.7%
21,Cc1ccc2occ(CC(=O)N(Cc3ccc(C(C)C)cc3)C3CCS(=O)(=O)C3)c2c1 (stereo not drawn),-14.7%
